# Measurements taken from the supplement of paper PMC8728848.
# The list shows a part of the results.
# How the values were obtained:
# Assay in all cases: glycan array binding signal (z-score within array); higher = stronger binding
# Conditions in all cases: glycan notation: IUPAC condensed, linker removed
# [1] = target: Gal(b1-3)GlcNAc(a1-3)Gal(b1-4)GlcNAc
# Summary of the method: (§1)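 The binding signal is a Z-score computed within each array and averaged over linkers. Arrays of the same protein sequence at different concentrations or buffers were also averaged together. Data originate from 3228 arrays in the Consortium for Functional Glycomics database, kept only where the protein sequence was available.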
# [2] = target: Gal(b1-3)GlcNAc(a1-6)Gal(b1-4)GlcNAc
# Summary of the method: as §1
# Gal(b1-3)GlcNAc(b1-2)Man = target: Gal(b1-3)GlcNAc(b1-2)Man
# Summary of the method: as §1
# [3] = target: Gal(b1-3)GlcNAc(b1-2)Man(a1-3)[Gal(b1-3)GlcNAc(b1-2)Man(a1-6)]Man(b1-4)GlcNAc(b1-4)GlcNAc
# Summary of the method: as §1
# [4] = target: Gal(b1-3)GlcNAc(b1-2)Man(a1-3)[Gal(b1-3)GlcNAc(b1-2)Man(a1-6)]Man(b1-4)GlcNAc(b1-4)[Fuc(a1-6)]GlcNAc
# Summary of the method: as §1
# [5] = target: Gal(b1-3)GlcNAc(b1-2)Man(a1-3)[GlcNAc(b1-4)][Gal(b1-3)GlcNAc(b1-2)Man(a1-6)]Man(b1-4)GlcNAc(b1-4)GlcNAc
# Summary of the method: as §1
# [6] = target: Gal(b1-3)GlcNAc(b1-2)[Gal(b1-3)GlcNAc(b1-6)]Man(a1-6)[Gal(b1-3)GlcNAc(b1-2)Man(a1-3)]Man(b1-4)GlcNAc(b1-4)GlcNAc
# Summary of the method: as §1
# [7] = target: Gal(b1-3)GlcNAc(b1-3)Gal(b1-3)GlcNAc
# Summary of the method: as §1
# [8] = target: Gal(b1-3)GlcNAc(b1-3)Gal(b1-4)Glc
# Summary of the method: as §1
# [9] = target: Gal(b1-3)GlcNAc(b1-3)Gal(b1-4)GlcNAc
# Summary of the method: as §1
# [10] = target: Gal(b1-3)GlcNAc(b1-3)Gal(b1-4)GlcNAc(b1-2)Man(a1-3)[Gal(b1-3)GlcNAc(b1-3)Gal(b1-4)GlcNAc(b1-2)Man(a1-6)]Man(b1-4)GlcNAc(b1-4)GlcNAc
# Summary of the method: as §1
# [11] = target: Gal(b1-3)GlcNAc(b1-3)Gal(b1-4)GlcNAc(b1-2)[Gal(b1-3)GlcNAc(b1-3)Gal(b1-4)GlcNAc(b1-6)]Man(a1-6)[Gal(b1-3)GlcNAc(b1-3)Gal(b1-4)GlcNAc(b1-2)Man(a1-3)]Man(b1-4)GlcNAc(b1-4)[Fuc(a1-6)]GlcNAc
# Summary of the method: as §1
# [12] = target: Gal(b1-3)GlcNAc(b1-3)Gal(b1-4)GlcNAc(b1-3)Gal(b1-4)GlcNAc(b1-2)[Gal(b1-3)GlcNAc(b1-3)Gal(b1-4)GlcNAc(b1-3)Gal(b1-4)GlcNAc(b1-6)]Man(a1-6)[Gal(b1-3)GlcNAc(b1-3)Gal(b1-4)GlcNAc(b1-3)Gal(b1-4)GlcNAc(b1-2)Man(a1-3)]Man(b1-4)GlcNAc(b1-4)[Fuc(a1-6)]GlcNAc
# Summary of the method: as §1
# [13] = target: Gal(b1-3)GlcNAc(b1-3)Gal(b1-4)GlcNAc(b1-6)[Gal(b1-3)GlcNAc(b1-3)]Gal(b1-4)Glc
# Summary of the method: as §1
# [14] = target: Gal(b1-3)GlcNAc(b1-3)Gal(b1-4)[Fuc(a1-3)]GlcNAc
# Summary of the method: as §1
# [15] = target: Gal(b1-3)GlcNAc(b1-3)Gal(b1-4)[Fuc(a1-3)]GlcNAc(b1-6)[Gal(b1-3)GlcNAc(b1-3)]Gal(b1-4)Glc
# Summary of the method: as §1
# [16] = target: Gal(b1-3)GlcNAc(b1-3)GalNAc
# Summary of the method: as §1
# [17] = target: Gal(b1-3)GlcNAc(b1-6)Gal(b1-4)GlcNAc
# Summary of the method: as §1
# [18] = target: Gal(b1-3)GlcNAc(b1-6)GalNAc
# Summary of the method: as §1
# [19] = target: Gal(b1-3)GlcNAc(b1-6)[Gal(b1-3)]GalNAc
# Summary of the method: as §1
# Gal(b1-3)GlcNAc6S = target: Gal(b1-3)GlcNAc6S
# Summary of the method: as §1
# [20] = target: Gal(b1-3)[Fuc(a1-4)]GlcNAc
# Summary of the method: as §1
# [21] = target: Gal(b1-3)[Fuc(a1-4)]GlcNAc(b1-2)Man
# Summary of the method: as §1
# [22] = target: Gal(b1-3)[Fuc(a1-4)]GlcNAc(b1-2)Man(a1-3)[Gal(b1-3)[Fuc(a1-4)]GlcNAc(b1-2)Man(a1-6)]Man(b1-4)GlcNAc(b1-4)[Fuc(a1-6)]GlcNAc
# Summary of the method: as §1
# [23] = target: Gal(b1-3)[Fuc(a1-4)]GlcNAc(b1-3)Gal(b1-3)[Fuc(a1-4)]GlcNAc
# Summary of the method: as §1
# [24] = target: Gal(b1-3)[Fuc(a1-4)]GlcNAc(b1-3)Gal(b1-4)GlcNAc
# Summary of the method: as §1
# [25] = target: Gal(b1-3)[Fuc(a1-4)]GlcNAc(b1-3)Gal(b1-4)[Fuc(a1-3)]GlcNAc
# Summary of the method: as §1
# [26] = target: Gal(b1-3)[Fuc(a1-4)]GlcNAc(b1-6)GalNAc
# Summary of the method: as §1
# [27] = target: Gal(b1-3)[GlcNAc(b1-6)]GalNAc
# Summary of the method: as §1
# [28] = target: Gal(b1-3)[Neu5Ac(a2-6)]GalNAc
# Summary of the method: as §1
# [29] = target: Gal(b1-3)[Neu5Ac(a2-6)]GlcNAc(b1-4)Gal(b1-4)Glc
# Summary of the method: as §1
# [30] = target: Gal(b1-3)[Neu5Ac(a2-6)]GlcNAc(b1-6)Gal(b1-4)Glc
# Summary of the method: as §1
# [31] = target: Gal(b1-3)[Neu5Ac(b2-6)]GalNAc
# Summary of the method: as §1
# Gal(b1-4)Gal = target: Gal(b1-4)Gal
# Summary of the method: as §1
# [32] = target: Gal(b1-4)GalNAc(a1-3)[Fuc(a1-2)]Gal(b1-4)GlcNAc
# Summary of the method: as §1
# [33] = target: Gal(b1-4)GalNAc(b1-3)[Fuc(a1-2)]Gal(b1-4)GlcNAc
# Summary of the method: as §1
# Gal(b1-4)Glc = target: Gal(b1-4)Glc
# Summary of the method: as §1
binder,measurement,setting,value
"MAA (Maackia amurensis), P0DKL3 (protein) MATSNSKPTQVLLATFLTFFFLLLNNVNSSDELSFTINNFVPNEADLLFQGEASVSSTGVLQLTRVENGQPQKYSVGRALYAAPVRIWDNTTGSVASFSTSFTFVVKAPNPDITSDGLAFYLAPPDSQIPSGSVSKYLGLFNNSNSDSSNQIVAVELDTYFAHSYDPWDPNYRHIGIDVNGIESIKTVQWDWINGGVAFATITYLAPNKTLIASLVYPSNQTTFSVAASVDLKEILPEWVRVGFSAATGYPTEVETHDVLSWSFTSTLEANCDAATENNVHIARYTA",glycan array binding signal (z-score),[1],-0.283
same,glycan array binding signal (z-score),[2],-0.244
same,glycan array binding signal (z-score),Gal(b1-3)GlcNAc(b1-2)Man,-0.278
same,glycan array binding signal (z-score),[3],-0.021
same,glycan array binding signal (z-score),[4],-0.073
same,glycan array binding signal (z-score),[5],-0.27
same,glycan array binding signal (z-score),[6],-0.239
same,glycan array binding signal (z-score),[7],-0.161
same,glycan array binding signal (z-score),[8],-0.181
same,glycan array binding signal (z-score),[9],-0.22
same,glycan array binding signal (z-score),[10],-0.169
same,glycan array binding signal (z-score),[11],-0.213
same,glycan array binding signal (z-score),[12],0.178
same,glycan array binding signal (z-score),[13],-0.24
same,glycan array binding signal (z-score),[14],-0.245
same,glycan array binding signal (z-score),[15],-0.145
same,glycan array binding signal (z-score),[16],-0.209
same,glycan array binding signal (z-score),[17],-0.239
same,glycan array binding signal (z-score),[18],-0.258
same,glycan array binding signal (z-score),[19],-0.214
same,glycan array binding signal (z-score),Gal(b1-3)GlcNAc6S,-0.338
same,glycan array binding signal (z-score),[20],-0.217
same,glycan array binding signal (z-score),[21],-0.144
same,glycan array binding signal (z-score),[22],0.008
same,glycan array binding signal (z-score),[23],-0.278
same,glycan array binding signal (z-score),[24],-0.239
same,glycan array binding signal (z-score),[25],-0.212
same,glycan array binding signal (z-score),[26],0.11
same,glycan array binding signal (z-score),[27],-0.157
same,glycan array binding signal (z-score),[28],-0.241
same,glycan array binding signal (z-score),[29],-0.262
same,glycan array binding signal (z-score),[30],-0.252
same,glycan array binding signal (z-score),[31],-0.219
same,glycan array binding signal (z-score),Gal(b1-4)Gal,-0.137
same,glycan array binding signal (z-score),[32],-0.17
same,glycan array binding signal (z-score),[33],-0.249
same,glycan array binding signal (z-score),Gal(b1-4)Glc,-0.176
